Source: publication PMC5892938
Some of the results follow. At the low end of the ranking the order means little.

target: GST-SBP-SLBP (stem-loop binding protein) (UniProt Q14493); test: targeted RNA Bind-n-Seq; conditions: RBNS binding buffer: 25 mM Tris pH 7.5, 150 mM KCl, 3 mM MgCl2, 0.1% Tween, 0.5 mg/mL BSA, 1 mM DTT; 27 nM protein, 750 pM RNA pool; temperature not stated; high values mean tight binding;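 note: DESeq read counts versus GST-SBP nonspecific binding control pulldown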

Sequence | binding signal (log2 fold change)
GGUCACGUCUCAAUCAACUCAUCUUCAGGAGUUUACUCCUGUUUUUUCAACAGCUCGCAGUCAAG | -0.0386
GGUCACGUCUCAAUCAACUCAAUCGAGGGGGGGAAAACCCCUUUGCCCUCACAUUCAACAGCUCGCAGUCAAG | -0.631
GGUCACGUCUCAAUCAACUCUUCGUCAGGAGUUUCCUCCUGCUUAUUCAACAGCUCGCAGUCAAG | -0.103
GGUCACGUCUCAAUCAACUCCACAGAGGGGGGGAAAACCCCUUUACCCUCCUACUCAACAGCUCGCAGUCAAG | -0.326
GGUCACGUCUCAAUCAACUCGUUUUCAGGAGUUUACUCCUGUAUUUUCAACAGCUCGCAGUCAAG | -0.0345
GGUCACGUCUCAAUCAACUCAAUCCCAGGAGUUUUCUCCUGUUAUUUCAACAGCUCGCAGUCAAG | 0.148
GGUCACGUCUCAAUCAACUCCAAUGAGGGGGGGAAAACCCCUUUACCCUCCAUAUCAACAGCUCGCAGUCAAG | 0.0126
GGUCACGUCUCAAUCAACUCAUUAGAGGGGGGGAAAACCCCUUUGCCCUCAUCUUCAACAGCUCGCAGUCAAG | 0.356
GGUCACGUCUCAAUCAACUCAUUCCCCAGGGAAAACCCUGGCUAUCUCAACAGCUCGCAGUCAAG | -0.261
GGUCACGUCUCAAUCAACUCUUCAGAGGGGGGGAAAACCCCUUUACCCUCACACUCAACAGCUCGCAGUCAAG | 0.0521
GGUCACGUCUCAAUCAACUCCACGGAGGGGGGGAAAACCCCUUUACCCUCACUAUCAACAGCUCGCAGUCAAG | -0.169
GGUCACGUCUCAAUCAACUCUUCCUCCAGGGAAAUCCCUGGCAAUGUCAACAGCUCGCAGUCAAG | 0.155
GGUCACGUCUCAAUCAACUCAUCCCCAGGAGUUUACUCCUGCUUAUUCAACAGCUCGCAGUCAAG | 0.0137
GGUCACGUCUCAAUCAACUCAACUCCCAGGGAAAUCCCUGGCAUAUUCAACAGCUCGCAGUCAAG | -0.11
GGUCACGUCUCAAUCAACUCUAUGUCAGGAGUUUCCUCCUGCUAAUUCAACAGCUCGCAGUCAAG | -0.0221
GGUCACGUCUCAAUCAACUCUAGUCCCAGGGAAAGCCCUGGUAAAUUCAACAGCUCGCAGUCAAG | -0.182
GGUCACGUCUCAAUCAACUCAGUCUCCAGGGAAAACCCUGGCUAAUUCAACAGCUCGCAGUCAAG | -0.171
GGUCACGUCUCAAUCAACUCUAUCGCAGGAGUUUACUCCUGGUAUCUCAACAGCUCGCAGUCAAG | 0.0243
GGUCACGUCUCAAUCAACUCAUUCUCAGGAGUUUGCUCCUGCUUUUUCAACAGCUCGCAGUCAAG | -0.229
GGUCACGUCUCAAUCAACUCUUCCCCAGGAGUUUUCUCCUGUUAACUCAACAGCUCGCAGUCAAG | -0.181
GGUCACGUCUCAAUCAACUCUUCUCCCAGGGAAAGCCCUGGUUAUUUCAACAGCUCGCAGUCAAG | 0.19
GGUCACGUCUCAAUCAACUCUUCGUCAGGAGUUUUCUCCUGUUUUCUCAACAGCUCGCAGUCAAG | 0.19
GGUCACGUCUCAAUCAACUCGUCUUCAGGAGUUUCCUCCUGCUUUUUCAACAGCUCGCAGUCAAG | 0.00217
GGUCACGUCUCAAUCAACUCUUCUCCAGGAGUUUUCUCCUGUUUACUCAACAGCUCGCAGUCAAG | 0.296
GGUCACGUCUCAAUCAACUCAUCUUCCAGGGAAAGCCCUGGUAAAUUCAACAGCUCGCAGUCAAG | -0.163

Sequence | binding signal (log2 fold change)
GGUCACGUCUCAAUCAACUCUCAAGAGGGGGGGAAAACCCCUUUUCCCUCAACAUCAACAGCUCGCAGUCAAG | 0.046
GGUCACGUCUCAAUCAACUCUAUUCCAGGAGUUUCCUCCUGCUUACUCAACAGCUCGCAGUCAAG | 0.112
GGUCACGUCUCAAUCAACUCUAUCUCAGGAGUUUCCUCCUGCAAACUCAACAGCUCGCAGUCAAG | 0.2
GGUCACGUCUCAAUCAACUCAUUCCCAGGAGUUUACUCCUGUUUUCUCAACAGCUCGCAGUCAAG | 0.285
GGUCACGUCUCAAUCAACUCAACUUCCAGGGAAACCCCUGGCAAUUUCAACAGCUCGCAGUCAAG | -0.136
GGUCACGUCUCAAUCAACUCUAUUUCCAGGGAAAUCCCUGGCUUUCUCAACAGCUCGCAGUCAAG | 0.165
GGUCACGUCUCAAUCAACUCUUCCCCCAGGGAAAGCCCUGGUAAUUUCAACAGCUCGCAGUCAAG | -0.0379
GGUCACGUCUCAAUCAACUCAUCCUCCAGGGAAAUCCCUGGUUAACUCAACAGCUCGCAGUCAAG | 0.0732
GGUCACGUCUCAAUCAACUCUUUCCCAGGAGUUUCCUCCUGUAAUGUCAACAGCUCGCAGUCAAG | 0.00484
GGUCACGUCUCAAUCAACUCUAUCUCAGGAGUUUUCUCCUGUAUUCUCAACAGCUCGCAGUCAAG | -0.0784
GGUCACGUCUCAAUCAACUCAAUUCCCAGGGAAACCCCUGGUUAACUCAACAGCUCGCAGUCAAG | -0.0359
GGUCACGUCUCAAUCAACUCUUUCUCAGGAGUUUUCUCCUGCUAAUUCAACAGCUCGCAGUCAAG | -0.0842
GGUCACGUCUCAAUCAACUCAUUCCCAGGAGUUUACUCCUGUUUAGUCAACAGCUCGCAGUCAAG | -0.0435
GGUCACGUCUCAAUCAACUCCUUAGAGGGGGGGAAAACCCCUUUACCCUCACAUUCAACAGCUCGCAGUCAAG | -0.154
GGUCACGUCUCAAUCAACUCUUCCUCAGGAGUUUACUCCUGUUAACUCAACAGCUCGCAGUCAAG | 0.0496
GGUCACGUCUCAAUCAACUCGUCUUCAGGAGUUUCCUCCUGUAUUUUCAACAGCUCGCAGUCAAG | 0.0981
GGUCACGUCUCAAUCAACUCUAUCUCCAGGGAAAACCCUGGUAAACUCAACAGCUCGCAGUCAAG | -0.238
GGUCACGUCUCAAUCAACUCAAUCCCAGGAGUUUGCUCCUGUAUAUUCAACAGCUCGCAGUCAAG | 0.0558
GGUCACGUCUCAAUCAACUCAACUUCAGGAGUUUUCUCCUGCAAACUCAACAGCUCGCAGUCAAG | -0.000925
GGUCACGUCUCAAUCAACUCUUUUCCCAGGGAAAUCCCUGGUAUUUUCAACAGCUCGCAGUCAAG | -0.0337
GGUCACGUCUCAAUCAACUCUUUCCCCAGGGAAAUCCCUGGCUUAUUCAACAGCUCGCAGUCAAG | 0.146
GGUCACGUCUCAAUCAACUCUUCUUCCAGGGAAAGCCCUGGCAAUCUCAACAGCUCGCAGUCAAG | -0.0475
GGUCACGUCUCAAUCAACUCUUCCUCAGGAGUUUACUCCUGUAAUUUCAACAGCUCGCAGUCAAG | 0.0518
GGUCACGUCUCAAUCAACUCAAUCCCAGGAGUUUCCUCCUGUAUUUUCAACAGCUCGCAGUCAAG | 0.216
GGUCACGUCUCAAUCAACUCUUCCCCCAGGGAAAACCCUGGCAAACUCAACAGCUCGCAGUCAAG | 0.0816

Sequence | binding signal (log2 fold change)
GGUCACGUCUCAAUCAACUCAUCGCCAGGAGUUUCCUCCUGUAAUCUCAACAGCUCGCAGUCAAG | 0.147
GGUCACGUCUCAAUCAACUCCUUCGAGGGGGGGAAAACCCCUUUACCCUCAUCAUCAACAGCUCGCAGUCAAG | -0.187
GGUCACGUCUCAAUCAACUCUUUCCCCAGGGAAACCCCUGGCUUAUUCAACAGCUCGCAGUCAAG | 0.242
GGUCACGUCUCAAUCAACUCUAUUCCCAGGGAAACCCCUGGUAAAUUCAACAGCUCGCAGUCAAG | 0.224
GGUCACGUCUCAAUCAACUCUUAAGAGGGGGGGAAAACCCCUUUGCCCUCCAACUCAACAGCUCGCAGUCAAG | 0.269
GGUCACGUCUCAAUCAACUCUUCCCCCAGGGAAAGCCCUGGCUAUCUCAACAGCUCGCAGUCAAG | 0.115
GGUCACGUCUCAAUCAACUCUUUAGAGGGGGGGAAAACCCCUUUACCCUCAUCCUCAACAGCUCGCAGUCAAG | 0.00761
GGUCACGUCUCAAUCAACUCAACUUCAGGAGUUUACUCCUGUUAAUUCAACAGCUCGCAGUCAAG | 0.103
GGUCACGUCUCAAUCAACUCCAACGAGGGGGGGAAAACCCCUUUACCCUCACAUUCAACAGCUCGCAGUCAAG | 0.014
GGUCACGUCUCAAUCAACUCUAUUUCAGGAGUUUUCUCCUGCUUUGUCAACAGCUCGCAGUCAAG | 0.00122
GGUCACGUCUCAAUCAACUCAUUCCCCAGGGAAAGCCCUGGCUUUCUCAACAGCUCGCAGUCAAG | -0.275
GGUCACGUCUCAAUCAACUCUCAAGAGGGGGGGAAAACCCCUUUUCCCUCAAAUUCAACAGCUCGCAGUCAAG | -0.383
GGUCACGUCUCAAUCAACUCUUCCCCCAGGGAAAUCCCUGGCAUAUUCAACAGCUCGCAGUCAAG | 0.0248
GGUCACGUCUCAAUCAACUCAUUCCCAGGAGUUUUCUCCUGUAUAUUCAACAGCUCGCAGUCAAG | -0.0682
GGUCACGUCUCAAUCAACUCAAUUCCAGGAGUUUCCUCCUGCAAACUCAACAGCUCGCAGUCAAG | 0.0917
GGUCACGUCUCAAUCAACUCUUUAGAGGGGGGGAAAACCCCUUUACCCUCAAUCUCAACAGCUCGCAGUCAAG | -0.0216
GGUCACGUCUCAAUCAACUCUUCUUCAGGAGUUUCCUCCUGCAAAUUCAACAGCUCGCAGUCAAG | 0.0653
GGUCACGUCUCAAUCAACUCUACUUCAGGAGUUUCCUCCUGCAUUUUCAACAGCUCGCAGUCAAG | 0.0226
GGUCACGUCUCAAUCAACUCUUCCUCAGGAGUUUACUCCUGUAAUGUCAACAGCUCGCAGUCAAG | -0.0264
GGUCACGUCUCAAUCAACUCAGUCUCAGGAGUUUUCUCCUGCAUAUUCAACAGCUCGCAGUCAAG | 0.145
GGUCACGUCUCAAUCAACUCAUCCCCCAGGGAAAUCCCUGGUUUUUUCAACAGCUCGCAGUCAAG | -0.139
GGUCACGUCUCAAUCAACUCAUUUCCCAGGGAAAUCCCUGGCAAUCUCAACAGCUCGCAGUCAAG | 0.279
GGUCACGUCUCAAUCAACUCUUUUUCCAGGGAAAUCCCUGGCAUGUUCAACAGCUCGCAGUCAAG | 0.035
GGUCACGUCUCAAUCAACUCUUUAGAGGGGGGGAAAACCCCUUUGCCCUCGAUAUCAACAGCUCGCAGUCAAG | -0.184
